This is one part of the list. Sequences were assembled here from the parent chain. Values near 0.05 are background.
B1: TEV protease; numbered along this chain (parent)
chain: MGESLFKGPRDYNPISSSICHLTNESDGHTTSLYGIGFGPFIITNKHLFRRNNGTLVVQSLHGVFKVKDTTTLQQHLVDGRDMIIIRMPKDFPPFPQKLKFREPQREERICLVTTNFQTKSMSSMVSDTSCTFPSGDGIFWKHWIQTKDGQCGSPLVSTRDGFIVGIHSASNFTNTNNYFTSVPKNFMELLTNQEAQQWVSGWRLNADSVLWGGHKVFMVKPEEPFQPVKEATQL

Variants of: B1
Test: raw area under fraction-flipped curve 0-4 h after induction (AUC4h, not background-subtracted), DNA-recorder readout of cleavage of the substrate (dimensionless); higher = more cleavage of the substrate by the protease variant
Settings: temperature: 34 °C; time window: 0-4 h after rhamnose induction
Protocol: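 In vivo DNA recorder in E. coli TOP10(DE3) ΔrhaA at 34 °C. Each TEVp single-site mutant (parent TEVp 0) is paired with a single-site variant of the 7-mer TEVs (canonical ENLYFQ|S). The substrate sits between flexible linkers in a Bxb1-sfGFP-TEVs-SsrA fusion, so cleavage stabilises Bxb1 and speeds flipping of a recombination array, read by NGS. The value is the raw area under the fraction-flipped curve over 0-4 h after rhamnose induction (AUC4h), with ≥20 reads per time point. It is not background-subtracted; inactive controls average about 0.047.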
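Also: Bxb1 expression induced with 0.2% (w/v) L-rhamnose at OD600 near 0.5, cultures sampled hourly, flipped fraction per protease–substrate barcode pair counted by paired-end Illumina sequencing.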

| Variant | area with substrate ENLYFAS | area with substrate ENLYFDS | area with substrate ENLYFES | area with substrate ENLYFFS | area with substrate ENLYFIS | area with substrate ENLYFKS | area with substrate ENLYFLS | area with substrate ENLYFMS | area with substrate ENLYFNS | area with substrate ENLYFVS | area with substrate ENLYFPS | area with substrate ENLYFTS | area with substrate ENLYFWS | area with substrate ENLYFYS | area with substrate ENLYFCS | area with substrate ENLYFGS | area with substrate ENLYFRS | area with substrate ENLYFSS | area with substrate ENLYFHS |
| --- | --- | --- | --- | --- | --- | --- | --- | --- | --- | --- | --- | --- | --- | --- | --- | --- | --- | --- | --- |
| Q151M | 0.06 | 0.0624 | 0.09 | 0.0786 | 0.0631 | 0.0591 | 0.0502 | 0.0604 | 0.0633 | 0.0539 |  |  |  |  |  |  |  |  |  |
| S154H | 0.077 | 0.0519 | 0.0627 | 0.0647 | 0.0544 |  |  | 0.0624 |  | 0.0604 | 0.056 | 0.0652 | 0.0513 | 0.0497 |  |  |  |  |  |
| P155D | 0.043 | 0.0449 | 0.0639 | 0.0537 | 0.0516 | 0.0534 | 0.0469 | 0.0473 | 0.0535 | 0.0375 | 0.0387 | 0.0417 | 0.0476 | 0.0532 | 0.0482 | 0.0318 | 0.0466 | 0.0511 |  |
| P155K | 0.0356 | 0.0464 | 0.0493 |  | 0.0534 | 0.0468 | 0.0549 | 0.0524 |  | 0.0127 | 0.0466 | 0.041 | 0.0538 |  | 0.0362 |  | 0.0545 |  | 0.0498 |
| L156E | 0.0537 | 0.0504 | 0.0445 | 0.0621 | 0.0503 | 0.0429 |  | 0.0437 | 0.0522 | 0.0535 | 0.0467 | 0.0474 | 0.0595 |  | 0.0573 |  | 0.0532 |  |  |
| V157D | 0.0522 |  | 0.049 | 0.0622 | 0.043 | 0.0477 | 0.0436 | 0.0391 | 0.0443 | 0.0506 | 0.0848 |  | 0.0448 | 0.061 |  |  | 0.0524 | 0.0491 | 0.0501 |
| V157L | 0.0641 |  | 0.058 | 0.0604 | 0.0512 | 0.0671 | 0.0537 | 0.0518 |  | 0.0565 | 0.0549 | 0.049 | 0.0664 |  | 0.054 |  | 0.0472 | 0.0541 | 0.0527 |
| V157S | 0.0545 |  | 0.0523 | 0.0686 | 0.0566 |  |  |  | 0.0574 | 0.0538 | 0.0614 |  | 0.0769 | 0.0449 |  |  | 0.0519 | 0.0692 | 0.058 |
| D161W | 0.0488 | 0.0514 | 0.0514 | 0.0595 | 0.0503 | 0.0444 | 0.0572 | 0.0525 | 0.0512 | 0.0273 | 0.0449 | 0.0452 | 0.0581 |  |  | 0.0537 | 0.0568 | 0.0468 | 0.0452 |
| V165T | 0.0444 |  | 0.0514 | 0.0429 | 0.0418 |  |  | 0.0549 | 0.0585 |  | 0.0552 | 0.0443 | 0.0406 |  | 0.0623 |  | 0.0761 | 0.0521 | 0.0585 |
| G166A | 0.0466 | 0.0566 | 0.0411 | 0.0592 | 0.045 | 0.0562 |  | 0.0558 | 0.0494 | 0.0551 | 0.0537 | 0.0514 | 0.0494 | 0.0565 |  |  | 0.0518 | 0.0494 | 0.0331 |
| G166D | 0.0403 | 0.055 | 0.0572 | 0.0679 | 0.0475 | 0.0519 | 0.052 | 0.0511 | 0.052 | 0.0551 | 0.0316 | 0.029 | 0.0436 | 0.0548 | 0.0699 | 0.0465 | 0.0513 | 0.053 | 0.0429 |
